Source: PMC9911399, “Two distinct binding modes provide the RNA-binding protein RbFox with extraordinary sequence specificity”
Residue numbers refer to the chain shown, from its start. The list shows a part of the results.

T1: RBFOX1 RRM RbFoxmut (Fox-RRM*) (Homo sapiens, UniProt Q9NWB1 109-208, R118D;E147R;N151S;E152T)
T1 sequence: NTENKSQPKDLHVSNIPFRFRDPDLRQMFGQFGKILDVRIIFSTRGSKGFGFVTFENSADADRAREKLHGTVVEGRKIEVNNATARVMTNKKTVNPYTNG

B1: UCUCAUA (DNA:RNA)
RNA: GGGAGACCGGAAUUCAGAUUGUCCUCUCAUAUUAAAUCCCGUCGUAGCCACCA
DNA 1: CAATCTGAATTCCGGTCTCCC
DNA 2: TGGTGGCTACGACGGGATT
B2: UCGUUGC (DNA:RNA)
RNA: B1 RNA with U27G, C28U, A29U, U30G, A31C
DNA 1: CAATCTGAATTCCGGTCTCCC
DNA 2: TGGTGGCTACGACGGGATT
B3: AACCAGU (DNA:RNA)
RNA: B1 RNA with U25A, C26A, U27C, U30G, A31U
DNA 1: CAATCTGAATTCCGGTCTCCC
DNA 2: TGGTGGCTACGACGGGATT
B4: UGGCCUU (DNA:RNA)
RNA: B1 RNA with C26G, U27G, A29C, A31U
DNA 1: CAATCTGAATTCCGGTCTCCC
DNA 2: TGGTGGCTACGACGGGATT
B5: AUGGCCA (DNA:RNA)
RNA: B1 RNA with U25A, C26U, U27G, C28G, A29C, U30C
DNA 1: CAATCTGAATTCCGGTCTCCC
DNA 2: TGGTGGCTACGACGGGATT
B6: UCGCCUG (DNA:RNA)
RNA: B1 RNA with U27G, A29C, A31G
DNA 1: CAATCTGAATTCCGGTCTCCC
DNA 2: TGGTGGCTACGACGGGATT
B7: UUCCCGG (DNA:RNA)
RNA: B1 RNA with C26U, U27C, A29C, U30G, A31G
DNA 1: CAATCTGAATTCCGGTCTCCC
DNA 2: TGGTGGCTACGACGGGATT
B8: GGUUCGG (DNA:RNA)
RNA: B1 RNA with U25G, C26G, C28U, A29C, U30G, A31G
DNA 1: CAATCTGAATTCCGGTCTCCC
DNA 2: TGGTGGCTACGACGGGATT
B9: CAGAUGC (DNA:RNA)
RNA: GGGAGACCGGAAUUCAGAUUGUCCCAGAUGCUUAAAUCCCGUCGUAGCCACCA
DNA 1: CAATCTGAATTCCGGTCTCCC
DNA 2: TGGTGGCTACGACGGGATT
B10: ACCAAGG (DNA:RNA)
RNA: B9 RNA with C25A, A26C, G27C, U29A, C31G
DNA 1: CAATCTGAATTCCGGTCTCCC
DNA 2: TGGTGGCTACGACGGGATT
B11: AUGGGUG (DNA:RNA)
RNA: B9 RNA with C25A, A26U, A28G, U29G, G30U, C31G
DNA 1: CAATCTGAATTCCGGTCTCCC
DNA 2: TGGTGGCTACGACGGGATT
B12: ACGCAAC (DNA:RNA)
RNA: B1 RNA with U25A, U27G, U30A, A31C
DNA 1: CAATCTGAATTCCGGTCTCCC
DNA 2: TGGTGGCTACGACGGGATT
B13: UCUUUGA (DNA:RNA)
RNA: B1 RNA with C28U, A29U, U30G
DNA 1: CAATCTGAATTCCGGTCTCCC
DNA 2: TGGTGGCTACGACGGGATT
B14: CUCGCCG (DNA:RNA)
RNA: B9 RNA with A26U, G27C, A28G, U29C, G30C, C31G
DNA 1: CAATCTGAATTCCGGTCTCCC
DNA 2: TGGTGGCTACGACGGGATT
B15: GACUAAA (DNA:RNA)
RNA: B1 RNA with U25G, C26A, U27C, C28U, U30A
DNA 1: CAATCTGAATTCCGGTCTCCC
DNA 2: TGGTGGCTACGACGGGATT
B16: ACACUCG (DNA:RNA)
RNA: B1 RNA with U25A, U27A, A29U, U30C, A31G
DNA 1: CAATCTGAATTCCGGTCTCCC
DNA 2: TGGTGGCTACGACGGGATT
B17: GAAUAAG (DNA:RNA)
RNA: B9 RNA with C25G, G27A, A28U, U29A, G30A, C31G
DNA 1: CAATCTGAATTCCGGTCTCCC
DNA 2: TGGTGGCTACGACGGGATT
B18: UAAGAAG (DNA:RNA)
RNA: B1 RNA with C26A, U27A, C28G, U30A, A31G
DNA 1: CAATCTGAATTCCGGTCTCCC
DNA 2: TGGTGGCTACGACGGGATT
B19: CCCCUGU (DNA:RNA)
RNA: B9 RNA with A26C, G27C, A28C, C31U
DNA 1: CAATCTGAATTCCGGTCTCCC
DNA 2: TGGTGGCTACGACGGGATT
B20: CGCGGCU (DNA:RNA)
RNA: B9 RNA with A26G, G27C, A28G, U29G, G30C, C31U
DNA 1: CAATCTGAATTCCGGTCTCCC
DNA 2: TGGTGGCTACGACGGGATT
B21: CCUCGUA (DNA:RNA)
RNA: B1 RNA with U25C, A29G
DNA 1: CAATCTGAATTCCGGTCTCCC
DNA 2: TGGTGGCTACGACGGGATT
B22: CUUCUGA (DNA:RNA)
RNA: B9 RNA with A26U, G27U, A28C, C31A
DNA 1: CAATCTGAATTCCGGTCTCCC
DNA 2: TGGTGGCTACGACGGGATT
B23: ACGACCU (DNA:RNA)
RNA: B9 RNA with C25A, A26C, U29C, G30C, C31U
DNA 1: CAATCTGAATTCCGGTCTCCC
DNA 2: TGGTGGCTACGACGGGATT
B24: ACGCAAG (DNA:RNA)
RNA: B1 RNA with U25A, U27G, U30A, A31G
DNA 1: CAATCTGAATTCCGGTCTCCC
DNA 2: TGGTGGCTACGACGGGATT
B25: GCGAUCG (DNA:RNA)
RNA: B9 RNA with C25G, A26C, G30C, C31G
DNA 1: CAATCTGAATTCCGGTCTCCC
DNA 2: TGGTGGCTACGACGGGATT
B26: AGGCUGU (DNA:RNA)
RNA: B9 RNA with C25A, A26G, A28C, C31U
DNA 1: CAATCTGAATTCCGGTCTCCC
DNA 2: TGGTGGCTACGACGGGATT
B27: GUAGAGC (DNA:RNA)
RNA: B9 RNA with C25G, A26U, G27A, A28G, U29A
DNA 1: CAATCTGAATTCCGGTCTCCC
DNA 2: TGGTGGCTACGACGGGATT
B28: CUUCGGC (DNA:RNA)
RNA: B9 RNA with A26U, G27U, A28C, U29G
DNA 1: CAATCTGAATTCCGGTCTCCC
DNA 2: TGGTGGCTACGACGGGATT
B29: CGCAAGA (DNA:RNA)
RNA: B9 RNA with A26G, G27C, U29A, C31A
DNA 1: CAATCTGAATTCCGGTCTCCC
DNA 2: TGGTGGCTACGACGGGATT
B30: UUUUAGU (DNA:RNA)
RNA: B1 RNA with C26U, C28U, U30G, A31U
DNA 1: CAATCTGAATTCCGGTCTCCC
DNA 2: TGGTGGCTACGACGGGATT
B31: ACGGACU (DNA:RNA)
RNA: B1 RNA with U25A, U27G, C28G, U30C, A31U
DNA 1: CAATCTGAATTCCGGTCTCCC
DNA 2: TGGTGGCTACGACGGGATT

molecular target: T1, RBFOX1 RRM RbFoxmut (Fox-RRM*); assay: EMSA; HiTS-Eq, 1 nM pool, 10 min; buffer printed only for the single-RNA assays: 10 mM Tris pH 7.5, 150 mM NaCl, 3.4 mM EDTA, 0.001% NP-40, 30 C; details: tags: His6 N-terminal (pET28a); label: 5' 32P
Outline: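 These values rest on relative association constants, computed from read-count changes of each RNA species versus the control reaction and normalised to the cognate motif. Reads came from free RNA recovered by 8% native PAGE after purified RbFox RRM (wild type or mutant) at increasing concentrations was equilibrated for 10 min in 50 µL with 1 nM of a 5′-radiolabelled pool with 7 randomized nucleotides and DNA-annealed flanks.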

Binder	binding signal
B1	0.109 KA relative to UGCAUGU
B2	0.126 KA relative to UGCAUGU
B3	0.0873 KA relative to UGCAUGU
B4	0.0973 KA relative to UGCAUGU
B5	0.106 KA relative to UGCAUGU
B6	0.19 KA relative to UGCAUGU
B7	0.0598 KA relative to UGCAUGU
B8	0.126 KA relative to UGCAUGU
B9	0.111 KA relative to UGCAUGU
B10	0.0823 KA relative to UGCAUGU
B11	0.263 KA relative to UGCAUGU
B12	0.0768 KA relative to UGCAUGU
B13	0.0898 KA relative to UGCAUGU
B14	0.0983 KA relative to UGCAUGU
B15	0.0844 KA relative to UGCAUGU
B16	0.0762 KA relative to UGCAUGU

Binder	binding signal
B17	0.134 KA relative to UGCAUGU
B18	0.0935 KA relative to UGCAUGU
B19	0.0903 KA relative to UGCAUGU
B20	0.0934 KA relative to UGCAUGU
B21	0.142 KA relative to UGCAUGU
B22	0.114 KA relative to UGCAUGU
B23	0.0534 KA relative to UGCAUGU
B24	0.113 KA relative to UGCAUGU
B25	0.13 KA relative to UGCAUGU
B26	0.122 KA relative to UGCAUGU
B27	0.126 KA relative to UGCAUGU
B28	0.0704 KA relative to UGCAUGU
B29	0.0865 KA relative to UGCAUGU
B30	0.112 KA relative to UGCAUGU
B31	0.062 KA relative to UGCAUGU
